# The list shows a part of the results.
# Columns and labels:
# Assay in all cases: glycan array binding signal (z-score within array); higher = stronger binding
# Details in all cases: glycan notation: IUPAC condensed, linker removed
# [1] = molecular target: Fuc(a1-2)Gal
# Summary of the method: (§1)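 The binding signal is a Z-score computed within each array and averaged over linkers. Arrays of the same protein sequence at different concentrations or buffers were also averaged together. Data originate from 3228 arrays in the Consortium for Functional Glycomics database, kept only where the protein sequence was available.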
# [2] = molecular target: Fuc(a1-2)Gal(b1-3)GalNAc
# Summary of the method: as §1
# [3] = molecular target: Fuc(a1-2)Gal(b1-3)GalNAc(a1-3)[Fuc(a1-2)]Gal(b1-4)Glc
# Summary of the method: as §1
# [4] = molecular target: Fuc(a1-2)Gal(b1-3)GalNAc(a1-3)[Fuc(a1-2)]Gal(b1-4)GlcNAc
# Summary of the method: as §1
# [5] = molecular target: Fuc(a1-2)Gal(b1-3)GalNAc(b1-3)Gal
# Summary of the method: as §1
# [6] = molecular target: Fuc(a1-2)Gal(b1-3)GalNAc(b1-3)Gal(a1-4)Gal(b1-4)Glc
# Summary of the method: as §1
# [7] = molecular target: Fuc(a1-2)Gal(b1-3)GalNAc(b1-4)[Neu5Ac(a2-3)]Gal(b1-4)Glc
# Summary of the method: as §1
# [8] = molecular target: Fuc(a1-2)Gal(b1-3)GlcNAc
# Summary of the method: as §1
# [9] = molecular target: Fuc(a1-2)Gal(b1-3)GlcNAc(b1-2)Man(a1-3)[Fuc(a1-2)Gal(b1-3)GlcNAc(b1-2)Man(a1-6)]Man(b1-4)GlcNAc(b1-4)GlcNAc
# Summary of the method: as §1
# [10] = molecular target: Fuc(a1-2)Gal(b1-3)GlcNAc(b1-3)Gal(b1-4)Glc
# Summary of the method: as §1
# [11] = molecular target: Fuc(a1-2)Gal(b1-3)GlcNAc(b1-3)[Fuc(a1-3)[Gal(b1-4)]GlcNAc(b1-6)]Gal(b1-4)Glc
# Summary of the method: as §1
# [12] = molecular target: Fuc(a1-2)Gal(b1-3)[Fuc(a1-4)]GlcNAc
# Summary of the method: as §1
# [13] = molecular target: Fuc(a1-2)Gal(b1-3)[Fuc(a1-4)]GlcNAc(b1-2)Man(a1-3)[Fuc(a1-2)Gal(b1-3)[Fuc(a1-4)]GlcNAc(b1-2)Man(a1-6)]Man(b1-4)GlcNAc(b1-4)GlcNAc
# Summary of the method: as §1
# [14] = molecular target: Fuc(a1-2)Gal(b1-3)[Fuc(a1-4)]GlcNAc(b1-3)[Fuc(a1-3)[Gal(b1-4)]GlcNAc(b1-6)]Gal(b1-4)Glc
# Summary of the method: as §1
# [15] = molecular target: Fuc(a1-2)Gal(b1-3)[Fuc(a1-4)]GlcNAc(b1-3)[Gal(b1-4)GlcNAc(b1-6)]Gal(b1-4)Glc
# Summary of the method: as §1
# [16] = molecular target: Fuc(a1-2)Gal(b1-4)Glc
# Summary of the method: as §1
# [17] = molecular target: Fuc(a1-2)Gal(b1-4)Glc6S
# Summary of the method: as §1
# [18] = molecular target: Fuc(a1-2)Gal(b1-4)GlcNAc
# Summary of the method: as §1
# [19] = molecular target: Fuc(a1-2)Gal(b1-4)GlcNAc(b1-2)Man(a1-3)[Fuc(a1-2)Gal(b1-4)GlcNAc(b1-2)Man(a1-6)]Man(b1-4)GlcNAc(b1-4)GlcNAc
# Summary of the method: as §1
# [20] = molecular target: Fuc(a1-2)Gal(b1-4)GlcNAc(b1-3)Gal(b1-4)GlcNAc
# Summary of the method: as §1
# [21] = molecular target: Fuc(a1-2)Gal(b1-4)GlcNAc(b1-3)Gal(b1-4)GlcNAc(b1-3)Gal(b1-4)GlcNAc
# Summary of the method: as §1
# [22] = molecular target: Fuc(a1-2)Gal(b1-4)GlcNAc(b1-3)GalNAc
# Summary of the method: as §1
# [23] = molecular target: Fuc(a1-2)Gal(b1-4)GlcNAc6S
# Summary of the method: as §1
# [24] = molecular target: Fuc(a1-2)Gal(b1-4)[Fuc(a1-3)]GlcNAc
# Summary of the method: as §1
# [25] = molecular target: Fuc(a1-2)Gal(b1-4)[Fuc(a1-3)]GlcNAc(b1-2)Man(a1-3)[Fuc(a1-2)Gal(b1-4)[Fuc(a1-3)]GlcNAc(b1-2)Man(a1-6)]Man(b1-4)GlcNAc(b1-4)GlcNAc
# Summary of the method: as §1
# [26] = molecular target: Fuc(a1-2)Gal(b1-4)[Fuc(a1-3)]GlcNAc(b1-3)Gal(b1-4)[Fuc(a1-3)]GlcNAc
# Summary of the method: as §1
# [27] = molecular target: Fuc(a1-2)Gal(b1-4)[Fuc(a1-3)]GlcNAc(b1-3)Gal(b1-4)[Fuc(a1-3)]GlcNAc(b1-3)Gal(b1-4)[Fuc(a1-3)]GlcNAc
# Summary of the method: as §1
# [28] = molecular target: Fuc(a1-2)Gal6S(b1-4)Glc
# Summary of the method: as §1
# [29] = molecular target: Fuc(a1-2)Gal6S(b1-4)Glc6S
# Summary of the method: as §1
# [30] = molecular target: Fuc(a1-2)Gal6S(b1-4)GlcNAc
# Summary of the method: as §1
# [31] = molecular target: Fuc(a1-2)[Gal(a1-3)]Gal
# Summary of the method: as §1
# [32] = molecular target: Fuc(a1-2)[Gal(a1-3)]Gal(b1-3)GlcNAc
# Summary of the method: as §1
# [33] = molecular target: Fuc(a1-2)[Gal(a1-3)]Gal(b1-3)GlcNAc(b1-2)Man(a1-3)[Fuc(a1-2)[Gal(a1-3)]Gal(b1-3)GlcNAc(b1-2)Man(a1-6)]Man(b1-4)GlcNAc(b1-4)GlcNAc
# Summary of the method: as §1
# [34] = molecular target: Fuc(a1-2)[Gal(a1-3)]Gal(b1-4)Glc
# Summary of the method: as §1
# [35] = molecular target: Fuc(a1-2)[Gal(a1-3)]Gal(b1-4)GlcNAc
# Summary of the method: as §1
# [36] = molecular target: Fuc(a1-2)[Gal(a1-3)]Gal(b1-4)GlcNAc(b1-2)Man(a1-3)[Fuc(a1-2)[Gal(a1-3)]Gal(b1-4)GlcNAc(b1-2)Man(a1-6)]Man(b1-4)GlcNAc(b1-4)GlcNAc
# Summary of the method: as §1
# [37] = molecular target: Fuc(a1-2)[Gal(a1-3)]Gal(b1-4)[Fuc(a1-3)]GlcNAc
# Summary of the method: as §1
binder,measurement,setting,value
"ZG-16 (Homo sapiens), O60844 (protein) IQARSSSYSGEYGSGGGKRFSHSGNQLDGPITALRVRVNTYYIVGLQVRYGKVWSDYVGGRNGDLEEIFLHPGESVIQVSGKYKWYLKKLVFVTDKGRYLSFGKDSGTSFNAVPLHPNTVLRFISGRSGSLIDAIGLHWDVYPTSCSRCSRGSDDDDKAEPRGPTIKPCPPCKCPAPNLLGGPSVFIFPPKIKDVLMISLSPIVTCVVVDVSEDDPDVQISWFVNNVEVHTAQTQTHREDYNSTLRVVSALPIQHQDWMSGKEFKCKVNNKDLPAPIERTISKPKGSVRAPQVYVLPPPEEEMTKKQVTLTCMVTDFMPEDIYVEWTNNGKTELNYKNTEPVLDSDGSYFMYSKLRVEKKNWVERNSYSCSVVHEGLHNHHTTKSFSRTPGKRTYHHHHHHARKLTR",glycan array binding signal (z-score),[1],-0.186
same,glycan array binding signal (z-score),[2],-0.224
same,glycan array binding signal (z-score),[3],-0.213
same,glycan array binding signal (z-score),[4],-0.019
same,glycan array binding signal (z-score),[5],0.063
same,glycan array binding signal (z-score),[6],-0.106
same,glycan array binding signal (z-score),[7],-0.187
same,glycan array binding signal (z-score),[8],1.33
same,glycan array binding signal (z-score),[9],-0.142
same,glycan array binding signal (z-score),[10],-0.175
same,glycan array binding signal (z-score),[11],-0.227
same,glycan array binding signal (z-score),[12],-0.221
same,glycan array binding signal (z-score),[13],-0.157
same,glycan array binding signal (z-score),[14],-0.196
same,glycan array binding signal (z-score),[15],-0.183
same,glycan array binding signal (z-score),[16],-0.214
same,glycan array binding signal (z-score),[17],-0.208
same,glycan array binding signal (z-score),[18],-0.172
same,glycan array binding signal (z-score),[19],-0.185
same,glycan array binding signal (z-score),[20],-0.166
same,glycan array binding signal (z-score),[21],-0.215
same,glycan array binding signal (z-score),[22],-0.124
same,glycan array binding signal (z-score),[23],-0.185
same,glycan array binding signal (z-score),[24],-0.209
same,glycan array binding signal (z-score),[25],-0.181
same,glycan array binding signal (z-score),[26],-0.197
same,glycan array binding signal (z-score),[27],-0.174
same,glycan array binding signal (z-score),[28],-0.218
same,glycan array binding signal (z-score),[29],-0.171
same,glycan array binding signal (z-score),[30],-0.224
same,glycan array binding signal (z-score),[31],-0.217
same,glycan array binding signal (z-score),[32],-0.142
same,glycan array binding signal (z-score),[33],-0.177
same,glycan array binding signal (z-score),[34],-0.2
same,glycan array binding signal (z-score),[35],-0.085
same,glycan array binding signal (z-score),[36],-0.178
same,glycan array binding signal (z-score),[37],-0.205

# Source: the supplement of paper PMC8728848
